# The list shows a part of the results.
# Test system: T1, C. trachomatis L2/434/Bu expressing GFP (CTL2-GFP)
# T1 construct: L2/434/Bu GFP intracellular growth in HeLa cells
# Parameters: species or system HeLa; C. trachomatis total inclusion area by high-content imaging, normalised to DMSO
# Conditions: total inclusion area; 28.5 h, 10 µM; inhibitor
# Procedure, shortened: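 Bulk GFP and resorufin signals were read first. Wells were then fixed, stained with Hoechst and imaged to detect GFP inclusions and host nuclei. MICs followed the previously described calculation.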
row,Structure (SMILES),% of control remaining
1,O=C(CSc1nc2ccccc2c(=O)[nH]1)Nc1ccc(Cl)c(C(=O)O)c1 [CBK268246],101.834
2,O=C(NCCN1CCOCC1)c1ccc(-c2ccco2)nc1NCc1cccnc1 [CBK076112],92.3969
3,O=C(/C=C/c1ccccc1)Nc1cccc(C(=O)O)c1 [CBK287193],91.6577
4,CCC(=O)Nc1nonc1-c1nc2ccccc2n1Cc1ccc(F)cc1Cl [CBK269608],107.39
5,Cc1nc(C2CCN(C(=O)c3cccnc3)CC2)c2sccn12 [CBK282233],83.9349
6,CC(C)C(=O)N(C)c1nnc(-c2cccnc2)s1 [CBK007554],65.4881
7,O=c1ccc(-c2ccccc2)nn1CC1CCNCC1 [CBK284203],43.4302
8,COc1ccccc1-c1nccnc1N[C@H]1CCN(Cc2ccccc2)C1 [CBK037626],81.1741
9,O=C(N/N=C\c1c(F)cccc1Cl)c1ccncc1 [CBK023263],77.5676
10,O=C(C1COc2ccccc2O1)N1CCN(c2ncccn2)CC1 (stereo not drawn) [CBK144502],79.8074
11,Cc1cccc(CN2CCC(N(C)Cc3nnc(C4CC4)n3C)C2)c1 (stereo not drawn) [CBK305165],46.5406
12,O=S(=O)(Nc1ccccn1)c1cccs1 [CBK043773],84.8801
13,Fc1ccc(-c2cncc(NCCc3cccnc3)n2)cc1Cl [CBK065745],90.4794
14,O=C(CC1C(=O)NCCN1C(=O)Nc1ccc(OCc2ccccc2)cc1)Nc1ccc(F)cc1 (stereo not drawn) [CBK086203],36.9275
15,Cc1nn(C)c(C)c1NC(=O)c1ncoc1-c1ccc(F)cc1 [CBK282359],60.4807
16,CN1CCCN(c2cncc(-c3cc4ccccc4o3)n2)CC1 [CBK065997],148.49
17,O=S(=O)(c1cnc(Cl)c(Br)c1)N1CCC2(CC1)OCCO2 [CBK044070],84.6666
18,CS(=O)(=O)c1ccc(CN2C(=O)CC3(CCN(C(=O)c4ccc([N+](=O)[O-])cc4)CC3)C2=O)cc1 [CBK155019],97.7078
19,CN(CC(=O)NCC1CCN(c2cccc(Cl)c2)C1)Cc1cccnc1 (stereo not drawn) [CBK306761],73.4796
20,Cc1ccc(-c2cc(C(=O)NCCCN3CCOCC3)c3cc(Cl)ccc3n2)o1 [CBK267737],111.593
21,CC(=O)C1=C(O)C(=O)N(CCCC(=O)O)C1c1ccc(Br)cc1 (stereo not drawn) [CBK286784],85.3709
22,Cc1cc(C)nc(-n2ncc3c2CC(c2cccs2)CC3=O)n1 (stereo not drawn) [CBK269371],113.048
23,Cc1ccc2nc(C)cc(C(=O)OCc3ccc(C(N)=O)cc3)c2c1 [CBK296676],103.211
24,CNc1cc(C(=O)N[C@@H]2CCOC[C@H]2Oc2ccc(CO)cc2)ccn1 [CBK306606],92.9011
25,O=C1C(=CNCCC(c2ccccc2)c2ccccc2)C(=O)c2ccccc21 [CBK262987],113.664
26,O=C(O)CCCN1C(=O)C(O)=C(C(=O)c2ccc([N+](=O)[O-])cc2)C1c1ccccc1F (stereo not drawn) [CBK263810],72.1033

row,Structure (SMILES),% of control remaining
1,O=C(Nc1cccnc1N1CCNCC1)c1cc(F)cc(F)c1 [CBK029420T],93.3271
2,CN1CCN(C(=O)c2ccc(-c3ccco3)nc2N(C)C)CC1 [CBK106121],99.9815
3,O=C(Nc1ccccc1Nc1cc(-c2ccccc2)nn1-c1ccccc1)c1ccc(Br)cc1 [CBK261297],66.658
4,COc1cccc([C@H]2CN(C(=O)c3ccccc3)[C@@H]3CCN(Cc4ccsc4)C[C@H]23)c1 [CBK285611],76.8381
5,COc1ccccc1CCC(=O)NCc1cnc(SC)n1C [CBK306926],42.2977
6,O=C(CNC(=O)c1ccccc1)N/N=C/c1ccc(C(=O)O)cc1 [CBK261976],95.0475
7,CS(=O)(=O)c1ccc(Cn2ccnc(N3CCN(C(=O)c4ccc5occc5c4)CC3)c2=O)cc1 [CBK153777],92.6752
8,CC(C)N(C(=O)c1ccccc1-c1cnc2nncn2c1)C(C)C [CBK306701],59.2879
9,CC(C)CN(CC(=O)NC1(c2ccccc2)CCC1)C(=O)N(C)C [CBK062704],20.6556
10,O=C(c1ccc(F)cc1)N1CCC(c2cc3cccnc3[nH]2)CC1 [CBK285001],110.753
11,CCC(=O)N1CCC[C@H]1Cn1nc(-c2ccc(F)cc2)ccc1=O [CBK284253],90.8547
12,Cn1ccnc1C1(O)CC2CCC(C1)N2C(=O)Nc1ccccc1F (stereo not drawn) [CBK284178],91.7511
13,Cc1ccc(-c2cc(C3CCN(C(=O)c4cnn(C)c4)C3)[nH]n2)cc1 (stereo not drawn) [CBK285266],89.6123
14,O=C(/C=C/c1ccccc1)NC(=S)Nc1ccc2oc(-c3ccncc3)nc2c1 [CBK263687],92.3761
15,CO[C@@H]1CO[C@H]2[C@@H]1OC[C@@H]2NC(=O)Nc1ccc(C(C)=O)cc1 [CBK289462],116.148
16,Nc1nonc1-c1noc(-c2cccc(Cl)c2)n1 [CBK026691],33.5093
17,O=C(C1CCC1)N1CCC(c2nc(Cc3cccs3)no2)C1 (stereo not drawn) [CBK283028],118.229
18,O=C(O)c1cc2c(s1)CN(C1CCCCC1)C2 [CBK286885],101.185
19,O=C(c1cc(F)c(F)cc1F)N1CCC2(CCN(C(=O)C3COc4ccccc4O3)C2)C1 (stereo not drawn) [CBK131390],81.7649
20,COc1cc([N+](=O)[O-])cc2cc(C(=O)NNC(=O)c3ccccc3Cl)c(=O)oc12 [CBK267011],109.169
21,O=c1[nH]c2ccccc2n1C1CCN(S(=O)(=O)c2cccs2)CC1 [CBK149689],84.7446
22,O=C1c2ccccc2NC(c2ccc(O)cc2)N1/N=C/c1ccc(O)cc1 (stereo not drawn) [CBK262985],93.0074
23,CC(C)(C)c1cc(C[C@H]2CNCC[C@H]2CC(=O)N2CCN(c3ccccn3)CC2)no1 [CBK288799],111.986
24,O=C(N[C@@H]1CCOC[C@H]1Oc1ccc(CO)cc1)c1ccc(F)cc1 [CBK306571],53.5866
25,O=C1c2ccccc2CN1c1ccc(Cl)cc1Cl [CBK109908],73.0193
26,c1csc(CN2CCC[C@H]2c2nc(-c3ccc(-n4ccnc4)nc3)no2)c1 [CBK288895],87.7436

row,Structure (SMILES),% of control remaining
1,CCCN1C[C@H](NC(=O)C2CC2)[C@@H](c2ccc(OC)cc2)C1 [CBK282518],118.893
2,Cc1cccc(NC(=O)NC(=O)C2CCN(CCOc3ccccc3)CC2)c1 [CBK034868],96.6163
3,CN(C)CCCN1C(=O)C(O)=C(C(=O)c2ccccc2)C1c1ccccn1 (stereo not drawn) [CBK287778],99.6589
4,O=c1oc2cc(Oc3ccc([N+](=O)[O-])cc3C(F)(F)F)c(Cl)cc2c2c1CCCC2 [CBK264914],121.094
5,O=C(Nc1ccc(F)cc1)c1ccsc1NS(=O)(=O)Cc1ccccc1[N+](=O)[O-] [CBK042313],101.628
6,Cc1cc(N)n(CC(=O)NCCCn2ccnc2C(C)C)n1 [CBK306632],78.8126
7,CCn1c2ccccc2c2ccc(/C=N/NC(=O)c3ccc(O)cc3O)cc21 [CBK262948],36.028
8,Cc1ccc(C2C(C(=O)c3cccs3)=C(O)C(=O)N2CCN2CCOCC2)o1 (stereo not drawn) [CBK264559],105.556
9,CC12CCC(=O)N1C(C(=O)NCCNc1ccc(S(C)(=O)=O)cc1[N+](=O)[O-])CS2 (stereo not drawn) [CBK296661],74.9062
10,CN(C)c1nc2c(c(-c3cncc(N)c3)n1)CCCC2 [CBK307503],70.8604
11,CC(C)(C)c1ccc(S(=O)(=O)N2CCN(CCC(=O)O)CC2)cc1 [CBK297089],71.6418
12,COc1ccc(-c2cc3nnc(C)nc3s2)cc1 [CBK025638],40.4214
13,CN(C)c1ccc(C=Nc2ccc(NC(=O)CCC(=O)O)cc2)cc1 [CBK296091],95.3848
14,Cc1oc(-c2ccccc2)cc1C(=O)NCc1ccc(OC2CCNCC2)cc1 [CBK038915T],72.2642
15,CCc1nc(CNC(=O)c2cc3cc(F)ccc3n2C)no1 [CBK281414],81.4415
16,OCc1ccccc1-c1cncc(N2CCN(c3ccncc3)CC2)n1 [CBK065208],108.889
17,Cc1cc(C(C)(C)C)ccc1OCCNCCN [CBK265097G],107.346
18,COc1ccc(C(NC(=O)[C@H]2CCCN2C(=O)c2c(-c3ccccc3)noc2C)c2ccccc2C)cn1 (stereo partly drawn) [CBK075055],77.6261
19,COc1ccc(Cn2nc(NC(=O)Nc3c(C)noc3C)c3ccccc32)cc1 [CBK048528],72.064
20,C/C(CS(=O)(=O)c1ccccc1)=N/NC(N)=S [CBK026285],67.068
21,O=C(NCc1ccc2c(c1)OCO2)c1ccc(Oc2ccccc2)cc1 [CBK293982],76.9346
22,COc1cccc(CCC(=O)n2ccn(CCCOc3ccccc3)c2=O)c1 [CBK106565],98.1186
23,CC(C)CCNC(=O)c1cccc(-n2c(=S)[nH]c3cc(Cl)ccc3c2=O)c1 [CBK294444],101.171
24,O=C(Cc1csc2ccccc12)Nc1cnc(-c2ccc(F)cc2)c(-c2ccoc2)n1 [CBK037102],101.337
25,Cc1nn(C)c(C)c1NC(=O)COc1ccccc1C#N [CBK305850],85.4939
26,CCN(CC)c1ccc(NC(=O)COc2ccccc2)cc1 [CBK096048],114.111
